Measurements reported in the supplement of paper PMC7826260.
The other results are listed elsewhere or left out. The data describe in vitro nicking of single-stranded DNA by Rep domains (1 h at 37 °C, 3 µM enzyme); the outer parts of the 90-letter strands are left off. The score is log2 (uncut reads / reads without enzyme); strong cutting gives strongly negative numbers. There is no active / inactive call. Because reads are shares of a total, they shift together; uncut strands gain when others are lost, and binding without cutting may add a little.

Key:
Assay in all cases: uncleaved DNA left, log2 of reads against the no-enzyme library (log2 ratio); higher = less cleavage (more negative = more Rep cleavage of the k-mer); sequences stand for … in CTCGTCCG…ACCGGAGA
[1] = tested on: T1, Rep nickase domain of Muscovy duck circovirus
T1 sequence (Rep 1-111, printed without the tag): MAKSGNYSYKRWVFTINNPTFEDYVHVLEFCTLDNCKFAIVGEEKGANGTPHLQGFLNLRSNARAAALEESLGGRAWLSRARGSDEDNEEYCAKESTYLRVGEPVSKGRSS
Experimental: (§1)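 A pool of 90-nt single-stranded DNAs with seven random bases just before the constant AC of the nick site (name = the seven bases) was cut by 3 µM recombinant His6-SUMO-tagged Rep nickase domain (300 nM DNA, 50 mM HEPES pH 8.0, 50 mM NaCl, 1 mM MnCl2, 1 h, 37 °C, three replicates). Uncut DNA was amplified and sequenced.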

[2] = tested on: T2, Rep nickase domain of banana bunchy top virus
T2 sequence (Rep 1-94, printed without the tag): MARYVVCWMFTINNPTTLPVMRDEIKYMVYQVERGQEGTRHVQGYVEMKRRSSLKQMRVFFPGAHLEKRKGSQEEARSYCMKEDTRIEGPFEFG
Experimental: as §1

[3] = tested on: T3, Rep nickase domain of cabbage leaf curl virus
T3 sequence (Rep 1-116, printed without the tag): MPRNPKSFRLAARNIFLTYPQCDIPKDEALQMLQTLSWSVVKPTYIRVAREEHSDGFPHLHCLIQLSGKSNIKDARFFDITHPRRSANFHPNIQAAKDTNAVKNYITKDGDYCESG
Experimental: as §1

[4] = tested on: T4, Rep nickase domain of chickpea chlorotic dwarf virus
T4 sequence (Rep 1-124, printed without the tag): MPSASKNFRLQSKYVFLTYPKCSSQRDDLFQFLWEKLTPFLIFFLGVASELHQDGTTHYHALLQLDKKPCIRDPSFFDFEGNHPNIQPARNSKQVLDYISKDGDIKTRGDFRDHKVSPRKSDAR
Experimental: as §1

[5] = tested on: T5, Rep nickase domain of faba bean necrotic yellows virus
T5 sequence (Rep 1-98, printed without the tag): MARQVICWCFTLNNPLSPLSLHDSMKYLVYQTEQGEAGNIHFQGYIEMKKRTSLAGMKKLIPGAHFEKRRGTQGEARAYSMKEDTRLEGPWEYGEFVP
Experimental: as §1

[6] = tested on: T6, Rep nickase domain of maize striate mosaic virus
T6 sequence (Rep 1-117, printed without the tag): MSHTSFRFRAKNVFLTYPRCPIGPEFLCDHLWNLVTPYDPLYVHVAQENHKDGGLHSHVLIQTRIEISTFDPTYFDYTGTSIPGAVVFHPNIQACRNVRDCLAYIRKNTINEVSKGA
Experimental: as §1

[7] = tested on: T7, Rep nickase domain of porcine circovirus 2
T7 sequence (Rep 2-116, printed without the tag): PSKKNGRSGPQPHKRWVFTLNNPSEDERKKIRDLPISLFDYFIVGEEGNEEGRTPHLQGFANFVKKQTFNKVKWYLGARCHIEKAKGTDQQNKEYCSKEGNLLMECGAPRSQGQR
Experimental: as §1

[8] = tested on: T8, Rep nickase domain of tomato golden mosaic virus
T8 sequence (Rep 1-124, printed without the tag): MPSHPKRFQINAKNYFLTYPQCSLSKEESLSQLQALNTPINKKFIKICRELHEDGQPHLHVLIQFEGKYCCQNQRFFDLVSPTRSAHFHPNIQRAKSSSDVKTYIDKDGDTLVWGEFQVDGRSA
Experimental: as §1

[9] = tested on: T9, Rep nickase domain of tomato yellow leaf curl virus
T9 sequence (Rep 1-136, printed without the tag): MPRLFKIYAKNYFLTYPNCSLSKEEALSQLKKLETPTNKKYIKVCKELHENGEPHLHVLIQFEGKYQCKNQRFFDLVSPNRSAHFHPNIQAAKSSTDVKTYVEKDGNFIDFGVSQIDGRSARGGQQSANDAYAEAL
Experimental: as §1

[10] = tested on: T10, Rep nickase domain of wheat dwarf virus
T10 sequence (Rep 1-137, printed without the tag): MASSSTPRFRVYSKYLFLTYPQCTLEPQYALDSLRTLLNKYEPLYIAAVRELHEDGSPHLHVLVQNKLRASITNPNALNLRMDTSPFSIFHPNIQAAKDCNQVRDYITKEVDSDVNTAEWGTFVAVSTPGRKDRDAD
Experimental: as §1

Sequence	uncleaved DNA left (log2) [1]	uncleaved DNA left (log2) [2]	uncleaved DNA left (log2) [3]	uncleaved DNA left (log2) [4]	uncleaved DNA left (log2) [5]	uncleaved DNA left (log2) [6]	uncleaved DNA left (log2) [7]	uncleaved DNA left (log2) [8]	uncleaved DNA left (log2) [9]	uncleaved DNA left (log2) [10]
GGGTACT	-0.161	0.00555	0.753	1.87	-0.105	2.17	-1.48	-0.105	-0.0612	-0.0332
CTCGTGT	0.0144	-0.138	-0.329	-0.672	-0.103	-1	-0.0864	-0.0884	-0.0373	-0.0406
GTAACAG	0.0117	0.0969	-0.0967	-0.316	-0.0272	-0.0807	0.245	0.0561	0.145	0.194
GCATAAG	-0.122	-0.0461	-0.747	-0.0492	-0.0524	-0.939	0.0619	0.00947	0.0389	-0.085
ATAGAAC	0.0439	-0.0879	3.04e-05	-0.329	-0.0533	-0.612	0.0029	0.0368	-0.0937	0.0054
GCGTGCT	-0.275	0.00623	-0.433	-0.474	-0.146	-0.503	-2.33	0.0581	0.00658	-0.341
GCCATGC	0.141	0.102	-0.498	-0.23	0.0827	-0.897	0.23	0.108	0.218	0.0806
CCTTGGG	-0.191	-0.151	-0.928	-0.633	-0.0266	-1.29	-0.0654	-0.155	-0.118	-0.159
TTCTAGG	0.108	0.139	0.61	1.49	0.105	1.96	0.239	0.217	-0.0175	0.225
AATAGAC	0.0223	0.0409	0.174	0.429	0.0934	-0.295	0.273	0.0712	0.0385	0.0192
CTCGAGA	-0.0687	0.0706	0.689	1.36	-0.0526	0.968	-0.0233	-0.104	-0.119	-0.00455
CCACGCG	0.119	0.0665	-0.701	0.303	0.0785	-0.47	0.259	0.0262	0.119	-0.0247
CCCGTTG	-0.0327	-0.0214	-0.4	-0.632	-0.25	-0.728	0.164	0.024	0.193	-0.103
TAGCCAT	0.00146	-0.00225	0.124	-0.954	-0.0588	0.593	-2.17	0.0901	0.136	0.0862
TAAGCTG	0.0483	0.0454	0.355	1.61	-0.0301	1.75	0.237	0.147	-0.102	0.107
CGAAGGC	0.0389	-0.0594	0.0794	0.108	-0.0422	-0.428	0.16	0.113	0.00416	0.0663
CTACGGG	0.0832	-0.0775	-0.268	-0.522	0.0272	-0.718	0.107	-0.0225	-0.0173	-0.154
GAGGGAA	-0.0828	0.0861	0.373	1.19	-0.0643	1.77	0.109	0.069	-0.0471	-0.0208
CATCGTG	0.00681	-0.0414	-0.837	-0.438	-0.0247	-1.11	0.119	-0.0195	0.0487	-0.0615
CTCCTTC	-0.0424	-0.116	0.0113	-0.322	-0.123	-0.856	-0.0451	-0.0838	-0.118	0.018
AGGTTCG	0.109	0.00961	-0.678	-0.238	-0.0188	-0.758	0.198	0.15	0.146	0.0577

Sequence	uncleaved DNA left (log2) [1]	uncleaved DNA left (log2) [2]	uncleaved DNA left (log2) [3]	uncleaved DNA left (log2) [4]	uncleaved DNA left (log2) [5]	uncleaved DNA left (log2) [6]	uncleaved DNA left (log2) [7]	uncleaved DNA left (log2) [8]	uncleaved DNA left (log2) [9]	uncleaved DNA left (log2) [10]
ATGCTAT	-0.153	-0.179	-0.203	-0.595	-0.061	-0.571	-0.269	-0.157	-0.107	-0.13
CGAGTTC	0.0486	0.00301	0.17	-0.228	0.00419	-0.308	0.0532	-0.0696	-0.14	0.00191
TGTTGAG	0.147	-0.00675	-0.858	0.0343	0.0446	-0.936	0.224	0.00584	0.182	-0.121
CCGCCCT	-0.156	-0.143	-0.0737	-1.64	-0.0635	-0.234	-0.231	-0.16	-0.135	-0.0903
AAAGTGC	0.0137	-0.0599	-0.592	-0.742	0.118	-1.34	0.142	0.0511	0.055	-0.0181
AGCTCTC	-0.0742	0.0235	0.205	0.32	-0.104	0.202	-0.137	-0.0477	-0.0491	-0.00322
TAAGGAC	0.0738	0.0809	0.382	1.22	0.00182	1.16	0.107	0.0811	0.068	0.149
GTACAAT	0.0116	0.0563	0.357	0.885	0.238	1.7	0.0915	0.023	-0.0167	0.139
AGAAAAG	0.0458	-0.0593	-0.653	-0.404	0.0641	-1.1	0.0646	0.0181	0.0488	-0.0055
AAAGTAT	0.221	0.15	0.215	1.12	0.121	1.68	0.235	0.235	0.027	0.17
GTGGTCA	0.129	0.165	0.487	1.26	-0.0285	2.1	0.169	0.16	0.125	0.101
GGTGACC	-0.0738	-0.00826	0.591	1.63	0.00814	1.93	0.124	0.0882	0.071	0.119
TACTAGA	-0.0968	-0.152	-0.333	-1.09	-0.0309	-0.97	-1.11	0.0544	-0.0174	-0.0133
TTGGGCC	-0.0271	0.038	0.484	0.677	0.047	0.484	0.133	-0.0444	0.21	0.14
CCGGGTG	0.0654	0.0483	-0.0601	0.216	-0.113	0.235	0.0591	0.0958	-0.102	-0.0362
ATGAAAC	0.0632	0.097	-0.0809	-0.271	0.0366	-0.663	0.151	-0.0279	0.0221	0.0637
ACGAGAG	0.212	0.155	-0.559	0.0469	0.169	-0.854	0.343	0.0901	0.154	0.097
GAACCTG	0.0112	0.0181	0.0402	0.293	-0.0736	1.07	0.022	-0.00677	-0.11	0.00223
TTGATGA	0.0247	-0.0415	-0.114	-0.0962	0.159	-0.872	0.111	-0.0317	0.0106	-0.0397
ACGGACC	-0.0429	0.0395	0.0607	0.662	-0.0566	0.991	0.165	0.202	0.00336	0.0466
GGTAGAG	0.0943	0.108	0.667	1.57	0.0675	1.27	0.335	0.0529	0.267	0.141

Sequence	uncleaved DNA left (log2) [1]	uncleaved DNA left (log2) [2]	uncleaved DNA left (log2) [3]	uncleaved DNA left (log2) [4]	uncleaved DNA left (log2) [5]	uncleaved DNA left (log2) [6]	uncleaved DNA left (log2) [7]	uncleaved DNA left (log2) [8]	uncleaved DNA left (log2) [9]	uncleaved DNA left (log2) [10]
CTTTACC	-0.264	-0.103	-0.445	-2.61	-0.0624	-0.693	-1.3	-0.154	0.0429	-0.158
TCTCATC	0.257	0.204	0.198	0.154	0.231	-0.436	0.375	0.0415	0.0739	0.282
CGGGTTA	0.0103	-0.0302	0.264	0.147	-0.0618	0.988	-0.0786	-0.106	-0.161	-0.12
GCCACTG	-0.0865	0.0211	0.016	0.494	-0.109	1.22	0.0617	-0.053	-0.187	0.0218
GGCCGCG	0.0393	-0.0321	-0.565	0.0312	0.0105	-0.365	0.118	0.048	-0.128	-0.117
CGATTTC	0.0528	0.0752	-0.0329	-0.121	0.0927	-0.593	-0.0235	-0.0151	0.0878	-0.011
CTGAGTG	-0.0469	-0.00279	-0.342	-0.254	-0.00683	-0.791	-0.0476	-0.127	-0.0288	-0.187
GATAGTT	0.056	-0.437	0.216	-1.19	-0.0836	0.784	-1.45	0.000468	0.0267	0.0516
CGCGTTT	-0.29	-0.297	-0.304	-1.24	-0.0585	-0.639	-0.215	-0.155	-0.0774	-0.136
ACCTCAT	0.0784	0.0672	0.045	-0.158	-0.000217	0.0821	-0.193	0.0911	-0.204	-0.00649
GTCACGA	0.0101	0.0378	0.312	0.737	-0.0158	0.798	0.157	0.102	0.00583	0.00783
ACTCGCT	0.172	0.0779	-0.469	-1.18	0.157	-1.01	-0.362	0.0865	0.182	0.0425
CTGGCTA	0.0078	-0.0964	-0.226	-0.373	-0.0518	-0.347	-0.119	-0.119	-0.102	-0.0921
ACTGTAT	0.136	-0.0178	-0.0748	0.137	0.0549	0.259	-0.01	0.119	0.00582	0.0614
ACCAGGT	0.142	0.0544	0.257	0.843	0.165	0.0882	0.262	0.0972	0.0386	0.142
GGACTTG	-0.0919	0.0121	0.533	1.41	0.0918	1.88	0.183	-0.0373	-0.0344	0.119
TGGTAGA	0.0276	0.00882	0.282	0.248	0.0836	-0.0594	0.149	-0.0127	0.114	0.122
TCTGACC	0.0215	0.162	0.0851	0.64	0.0889	0.911	0.165	0.113	-0.0584	0.0194
GGCTTAG	0.0563	0.0893	0.00177	0.453	0.0129	0.101	0.165	0.0551	0.0651	0.0817
AATTTTG	-0.0928	0.0431	-0.559	-0.508	0.0694	-1.17	0.0388	-0.0431	0.0606	-0.0356
